From patent US20240392040A1 (AKESO HUIKE SHANGHAI, published 2024)

What was measured:
[1] = target: T1, human LAG3-mFc (human, UniProt P18627 23-450, limits assumed); test: indirect ELISA, coated human LAG3-mFc
T1 construct: not shown: mouse IgG Fc (mFc)
T1 sequence (looked up): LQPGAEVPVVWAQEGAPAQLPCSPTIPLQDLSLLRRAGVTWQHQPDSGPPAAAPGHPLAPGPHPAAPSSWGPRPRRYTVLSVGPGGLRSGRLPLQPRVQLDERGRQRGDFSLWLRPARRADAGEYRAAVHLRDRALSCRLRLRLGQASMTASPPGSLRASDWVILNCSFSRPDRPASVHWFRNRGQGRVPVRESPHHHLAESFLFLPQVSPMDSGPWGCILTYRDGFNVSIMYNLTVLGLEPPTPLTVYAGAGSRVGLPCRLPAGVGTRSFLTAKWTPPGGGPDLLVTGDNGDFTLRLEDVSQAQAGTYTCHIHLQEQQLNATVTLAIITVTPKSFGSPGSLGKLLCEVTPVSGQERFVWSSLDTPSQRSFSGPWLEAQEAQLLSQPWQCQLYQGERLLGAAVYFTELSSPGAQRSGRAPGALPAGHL
Procedure: Then the ELISA plate coated with the antigen was washed once with PBST and then blocked with a PBS solution containing 1% BSA as a blocking solution at 37° C. for 2 h. After blocking, the ELISA plate was washed 3 times with PBST. The ELISA plate containing the test antibodies was incubated at 37° C. for 30 min and then washed 3 times with PBST. […] After incubation, the plate was washed 4 times with PBST, TMB (Neogen, 308177) was added for chromogenesis in the dark for 5 min, and then a stop solution was added to terminate the chromogenic reaction. The ELISA plate was put into an ELISA plate reader immediately, and the OD value of each well in the ELISA plate was read at 450 nm. The data were analyzed and processed by SoftMax Pro 6.2.1.

[2] = target: T2, PD-1 on 293T-PD1 membrane surface (full-length human PD-1 on cells) (human, UniProt Q15116 25-288); test: competitive flow cytometry on 293T-PD1 cells, competitor PDL-1-mFc 20 nM
T2 construct: whole, on cells; the Promega PD-1 effector cells are bought; also called CHO-K1-PD1 cells
Procedure: 1. […] 100 μL of 1% PBSA was then added to each well, and the mixture was centrifuged and washed. […] 100 μL of a 400-fold diluted FITC goat anti-mouse IgG/IgM antibody (BD, Cat. No. 555988) was added, while 100 μL of 1% PBSA was added for a blank sample. The mixture was mixed well, incubated on ice in the dark for 30 min, washed, and centrifuged. The cells were resuspended and then transferred to a sample loading tube for testing on a flow cytometer.

[3] = target: T3, FcγRIIIa_F158 (UniProt P08637 partial chain, limits assumed); test: BLI (Fortebio Octet), FcγRIIIa_F158 on HIS1K sensor, antibody in solution
T3 construct: Construct not described
Procedure: (§1) The data were analyzed by 1:1 model fitting to obtain affinity constants.

[4] = target: T4, human PD-1-mFc (human, UniProt Q15116 partial chain, limits assumed); test: indirect ELISA, coated human PD-1-mFc
T4 construct: not shown: mouse IgG Fc (mFc)
Procedure: Then the ELISA plate coated with the antigen was washed once with PBST and then blocked with a PBS solution containing 1% BSA as a blocking solution at 37° C. for 2 h. After blocking, the ELISA plate was washed 3 times with PBST. The ELISA plate containing the test antibodies was incubated at 37° C. for 30 min and then washed 3 times with PBST.
After incubation, the plate was washed 4 times with PBST, TMB (Neogen, 308177) was added for chromogenesis in the dark for 5 min, and then a stop solution was added to terminate the chromogenic reaction. The ELISA plate was put into an ELISA plate reader immediately, and the OD value of each well in the ELISA plate was read at 450 nm. The data were analyzed and processed by SoftMax Pro 6.2.1.

[5] = target: T5, LAG3-mG1Fc (UniProt P18627 23-450); test: competitive flow cytometry, LAG3-mG1Fc 3 nM pre-incubated with antibody, binding to MHC II on Raji cells
T5 construct: not shown: mG1Fc (mouse IgG1 Fc by its name)
T5 sequence (looked up): T1 sequence (looked up)

[6] = target: T6, FcγRIIIa_V158 (UniProt P08637 partial chain, limits assumed); test: BLI (Fortebio Octet), FcγRIIIa_V158 on HIS1K sensor, antibody in solution
T6 construct: Construct not described
Procedure: The sensor was equilibrated in a buffer for 60 s, and the binding of the immobilized FcγRIIIa_V158 on the sensor to the antibodies at concentrations of 31.25-500 nM (serial two-fold dilution) was determined for 60 s. […] The data were analyzed by 1:1 model fitting to obtain affinity constants.

[7] = target: T7, FcγRIIa_H131 (UniProt P12318 34-218); test: BLI (Fortebio Octet), FcγRIIa_H131 on NTA sensor, antibody in solution
T7 construct: Construct not described
T7 sequence (looked up): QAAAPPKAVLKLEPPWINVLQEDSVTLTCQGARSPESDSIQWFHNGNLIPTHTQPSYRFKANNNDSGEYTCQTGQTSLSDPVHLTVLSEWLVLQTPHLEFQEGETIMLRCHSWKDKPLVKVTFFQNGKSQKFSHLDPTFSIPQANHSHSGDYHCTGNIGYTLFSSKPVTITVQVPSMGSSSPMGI
Procedure: as §1

Chain of FcγRIIIa_F158 (P08637 17-208 limits assumed): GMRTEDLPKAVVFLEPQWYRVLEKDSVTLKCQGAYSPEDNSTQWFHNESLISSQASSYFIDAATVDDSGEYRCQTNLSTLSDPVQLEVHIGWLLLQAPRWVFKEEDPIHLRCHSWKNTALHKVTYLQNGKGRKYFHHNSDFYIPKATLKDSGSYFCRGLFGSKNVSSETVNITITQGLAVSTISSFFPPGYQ
Chain of FcγRIIIa_V158 (P08637 17-208 F176V limits assumed): as the sequence (P08637 17-208 limits assumed) above, with F160V counted along it
Chain of human PD-1-mFc (Q15116 25-170 limits assumed): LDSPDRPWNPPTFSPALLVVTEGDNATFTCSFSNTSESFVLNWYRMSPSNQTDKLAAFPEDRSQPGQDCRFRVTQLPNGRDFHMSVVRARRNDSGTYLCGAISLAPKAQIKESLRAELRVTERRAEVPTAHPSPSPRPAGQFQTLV

B1: BS-PL022B (bispecific antibody, human IgG1, kappa)
heavy: QVQLQQWGAGLLKPSETLSLTCAVYGGSISDYYWNWIRQPPGKGLEWIGEINHRGTTNSNPSLKSRVTLSLDTSKNQFSLKLRSVTAADTAVYYCAFGYSDYEYDWFDPWGQGTLVTVSSASTKGPSVFPLAPSSKSTSGGTAALGCLVKDYFPEPVTVSWNSGALTSGVHTFPAVLQSSGLYSLSSVVTVPSSSLGTQTYICNVNHKPSNTKVDKKV[skipping human IgG1 Fc with L234A L235A G237A (EU numbers)]GGGGSGGGGSGGGGSGGGGSEVQLVESGGGLVQPGGSLRLSCAASGFAFSSYDMSWVRQAPGKGLDWVATISGGGRYTYYPDSVKGRFTISRDNSKNNLYLQMNSLRAEDTALYYCANRYGEAWFAYWGQGTLVTVSSGGGGSGGGGSGGGGSGGGGSDIQMTQSPSSMSASVGDRVTFTCRASQDINTYLSWFQQKPGKSPKTLIYRANRLVSGVPSRFSGSGSGQDYTLTISSLQPEDMATYYCLQYDEFPLTFGAGTKLELKR
light: EIVLTQSPATLSLSPGERATLSCRASQTISSYLAWYQQKPGQAPRLLIYDASNRATGIPARFSGSGSGTDFTLTISSLEPEDFAVYYCQQRSNWPITFGQGTNLEIKRTVAAPSVFIFPPSDEQLKSGTASVVCLLNNFYPREAKVQWKVDNALQSGNSQESVTEQDSKDSTYSLSSTLTLSKADYEKHKVYACEVTHQGLSSPVTKSFNRGEC
notes: Morrison form (IgG-scFv): an scFv at the C-terminus of each of the two heavy chains
EC50 [1]: 0.081 nM
EC50 [2]: 5.12 nM
binding result [3]: no binding
EC50 [4]: 0.074 nM
EC50 [5]: 1.31 nM
binding result [6]: no binding
binding result [7]: no binding
